Reference: article PMC4336329 (PLoS ONE, 2015)
Out of some 310,000 compounds screened, about 14,000 (4.5%) showed an effect of 50% or more. Effects have a minus sign here. Some of the results follow.

Each compound was assayed against human ether-à-go-go-related gene (hERG) potassium channel (human, UniProt Q12809) (assay: primary screen, population patch clamp on CHO cells stably expressing hERG).
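Note: peak tail current of the secondary pulse compared with the same well before compound.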

Sequence of human ether-à-go-go-related gene (hERG) potassium channel (Q12809 whole entry, looked up): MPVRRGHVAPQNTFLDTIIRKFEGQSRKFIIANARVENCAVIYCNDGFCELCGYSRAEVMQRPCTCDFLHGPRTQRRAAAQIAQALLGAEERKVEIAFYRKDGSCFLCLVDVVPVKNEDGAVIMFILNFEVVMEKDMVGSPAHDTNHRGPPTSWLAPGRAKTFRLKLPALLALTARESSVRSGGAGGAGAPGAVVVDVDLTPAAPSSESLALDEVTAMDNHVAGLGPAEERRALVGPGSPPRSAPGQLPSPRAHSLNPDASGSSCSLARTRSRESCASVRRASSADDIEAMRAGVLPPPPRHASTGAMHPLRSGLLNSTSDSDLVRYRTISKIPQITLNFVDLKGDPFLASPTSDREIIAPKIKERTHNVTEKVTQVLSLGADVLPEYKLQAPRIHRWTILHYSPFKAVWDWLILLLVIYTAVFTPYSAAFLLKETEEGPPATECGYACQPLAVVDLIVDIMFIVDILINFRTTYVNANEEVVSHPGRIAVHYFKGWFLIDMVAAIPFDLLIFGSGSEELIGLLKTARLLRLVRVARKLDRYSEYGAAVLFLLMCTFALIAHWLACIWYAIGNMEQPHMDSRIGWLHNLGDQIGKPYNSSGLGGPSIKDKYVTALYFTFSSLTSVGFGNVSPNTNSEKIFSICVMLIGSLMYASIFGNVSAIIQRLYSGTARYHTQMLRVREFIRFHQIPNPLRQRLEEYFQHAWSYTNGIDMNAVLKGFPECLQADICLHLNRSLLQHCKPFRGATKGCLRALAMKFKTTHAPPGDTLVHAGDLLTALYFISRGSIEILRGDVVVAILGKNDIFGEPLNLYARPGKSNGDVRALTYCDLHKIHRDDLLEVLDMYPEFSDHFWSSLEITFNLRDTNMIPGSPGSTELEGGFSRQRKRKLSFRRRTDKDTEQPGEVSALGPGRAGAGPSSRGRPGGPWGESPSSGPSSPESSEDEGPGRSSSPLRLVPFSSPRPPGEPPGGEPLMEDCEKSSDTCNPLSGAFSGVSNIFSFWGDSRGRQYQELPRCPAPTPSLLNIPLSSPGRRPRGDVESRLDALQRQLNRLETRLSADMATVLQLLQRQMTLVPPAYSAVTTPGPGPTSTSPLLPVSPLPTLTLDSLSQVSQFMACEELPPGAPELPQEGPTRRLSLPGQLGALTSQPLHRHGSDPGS

SMILES	hERG current change (%, negative = inhibition) at 10uM
COc1ccc(-c2nnc(SCC(=O)N/N=C/c3ccccc3C(=O)O)n2-c2ccc(Cl)cc2)cc1	4.64%
CCOC(=O)c1c(NC(=S)NCCc2ccccc2)sc2c1CC(C(C)C)OC2 (stereo not shown)	11.3%
COc1ccc(-c2ccc3oc(-c4ccc(OC)cc4)c(-c4ccc(OC)cc4)c3c2)cc1	18.7%
Cc1ccc(Cn2nc(C)c(NC(=O)c3nn(C)cc3Cl)c2C)cc1	-0.48%
COc1cccc(CC2(CO)CCCN(CC3=Cc4cc(OC)ccc4OC3)C2)c1 (stereo not shown)	-21.5%
CN(C)CC1CCCCC1OC(=O)c1ccc(Br)cc1.Cl (stereo not shown)	-7.82%
COC(=O)c1ccc2c(CCO)c[nH]c2c1	8.14%
O=c1cc(COc2ccccc2[N+](=O)[O-])nc2sccn12	4.69%
COC(=O)CNC(=O)COC(=O)Cc1ccc(Cl)cc1	18.1%
COc1ccc(N(C(=O)c2ccco2)C(C(=O)NC2CCCC2)c2cc(OC)c(OC)c(OC)c2)cc1 (stereo not shown)	14.1%
CC(C)C(NC(=O)c1ccc(C(C)(C)C)cc1)C(=O)O (stereo not shown)	2.22%
Cc1c(C(=O)Nc2ccccc2)oc2c1C(=O)CC(C)(C)C2	-18%
O=C(O)CNS(=O)(=O)c1ccc(C2CCCCC2)cc1	10.8%
O=C1NN(c2ccc(Cl)c(Cl)c2)C(=O)/C1=C/c1cccc(OC(=O)c2cccs2)c1	27.2%
CC(C)(O)C#Cc1ccc(C(=O)Nc2ccc3c(c2)OCO3)s1	22.7%
CCOC(=O)CSc1nnc(N)s1	15.6%
Cc1nnc(SC(C)C(=O)Nc2ccc(S(=O)(=O)N3CCCCC3)cc2)s1 (stereo not shown)	-18.4%
C/C(CC(=O)N1CCN(C=O)CC1)=N\NC(=O)c1cc2ccccc2cc1O	3.75%
Cc1ccc(NC(=O)C(C)Sc2nc3nc(C)cc(C)n3n2)cc1 (stereo not shown)	-41.4%
Cc1ccc(NC(=O)/C=C/C(=O)O)c(NC(=O)c2ccccc2)c1	6.45%
COC(=O)c1ccc(OC(=O)CCN2c3ccccc3Sc3ccccc32)cc1	8.91%
O=C(CSc1nc2ccccc2c(=O)n1-c1ccccc1)NC(=O)CN1CCCC1=O	12.2%
COCCCN(C(=O)c1cccnc1SC)c1c(N)n(Cc2ccccc2)c(=O)[nH]c1=O	8.98%
COc1cccc(C=O)c1OC(=O)N1CCOCC1	20.4%
CCN(CC)c1ccc(NC(=O)c2cccc(C)c2OC)c(C)c1	2.07%
Cc1ccc2[nH]c(=O)c(CN(Cc3ccco3)C(=O)CN3CCCC(C)C3)cc2c1 (stereo not shown)	-57%
CCOC(=O)C1CCN(C(=O)CN(c2cc(Cl)ccc2OC)S(=O)(=O)c2ccccc2)CC1	-67%
CCCCC1(c2ccc(F)cc2)NC(=O)N(CC(=O)N2CCN(C(=O)c3ccco3)CC2)C1=O (stereo not shown)	-52.6%

SMILES	hERG current change (%, negative = inhibition) at 10uM
Cn1c(=O)c2c(nc(Sc3ncnn3CC(=O)NC(C)(C)C)n2C)n(C)c1=O	31%
COc1ccc(-c2cc3ccccc3n2CC(O)CNC(CO)(CO)CO)cc1 (stereo not shown)	10.8%
O=C(c1ccco1)N1CCN(c2ccc(N3CCCCC3)nn2)CC1	-44.8%
O=C1COc2ccc(C(=O)COC(=O)COc3ccccc3[N+](=O)[O-])cc2N1	-10.4%
NC(=S)c1cn(C2OC(CO)C(O)C2O)c2ncnc(N)c12 (stereo not shown)	23.2%
Nc1c(C(=O)NCCc2ccccc2)nnn1Cc1ccccc1	-5.66%
COc1ccc(Nc2c([N+](=O)[O-])ccc3c2=NC2(CCCCC2)N=3)cc1	0.625%
O=C(Cn1cnc2ccccc21)Nc1ccc(C(=O)O)cc1.O=C(O)C(=O)O	-71.4%
CCN=C1NN=C(c2ccc(C)cc2)CS1	18.2%
COc1ccccc1Nc1c([N+](=O)[O-])cncc1[N+](=O)[O-]	12.5%
CCn1c(CNC(=O)COc2ccc(C(C)C)cc2)nnc1SCC(=O)Nc1ccc(F)cc1	-49.4%
O=C(NCCCN1CCN(Cc2ccccc2)CC1)C1CCN(c2nnc(-n3cccc3)s2)CC1	-48.5%
CC/C(CC(c1ccccc1)c1c(O)c2ccccc2oc1=O)=N\NC(N)=S (stereo not shown)	2.2%
Nc1ccc2cn[nH]c2c1	18.7%
CS(=O)(=O)c1ccc(Cl)c(NC(=O)Cc2ccccc2F)c1	24.4%
O=[N+]([O-])c1ccc(NC(=S)N2CCN(S(=O)(=O)c3ccccc3)CC2)cc1	-24.6%
Cc1ccc(C)c(N(CC(=O)NC2CCCC2)C(=O)c2cc3cc4cccc(C)c4nc3s2)c1	8.34%
CCNC(=O)COC(=O)c1sccc1C	5.58%
O=C(CSCc1ccc([N+](=O)[O-])cc1)Nc1ccc(S(=O)(=O)N2CCCCCC2)cc1	-20.2%
CC(=O)Oc1c(S(=O)(=O)c2ccc(C)cc2)c(C)nn1-c1ccccc1	-4.21%
O=c1c(N=Nc2ccc(O)cc2)c(-c2ccccc2)[nH]n1-c1ccc([N+](=O)[O-])cc1	11.1%
CCC(=O)NC(=S)Nc1ccc(OC)cc1OC	9.23%
Cc1ccc2cc3c(NC(=O)c4cccnc4)nn(C)c3nc2c1	13.8%
Cc1ccc(CN2CCN(C(=O)C3CCC3)CC2)cc1	16.1%
COc1ccc(OC)c(NC(=O)C2CCCN(S(=O)(=O)c3cccc4nonc34)C2)c1 (stereo not shown)	4.34%
COc1ccccc1NC(=O)N1CCN(C(=O)c2ccco2)CC1	1.53%
COC(=O)C1=C(C)N(c2ccc(F)cc2)/C(=C/c2ccc(O)cc2)C1=O	26.3%
